Hit rate of the full screen: of about 48,000 compounds, about 550 (1.1%) were called active. Another 4% or so got no clear call; they are omitted. No stated cut-off is given here; in the data, active means potency below about 15 µM; inconclusive means mostly about 16 µM to 33 µM; inactive means weaker than that. Some of the results follow. Where only a bound is given, the exact number is not on record here.
Potency means the concentration at half of the fitted maximal effect.

The experiment concerns the target Lysosomal acid glucosylceramidase (Homo sapiens) (UniProt P04062). The experiment in a line: Glucocerebrosidase.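 Further: the screen sought inhibitors.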 Particulars: purified enzyme, resorufin glucoside fluorescence (screen aimed at inhibitors), 20 min; series mostly up to 77 µM. The essentials: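 Compounds titrated against 0.2 nM normal enzyme, 30 uM resorufin beta-D-glucopyranoside substrate, citrate/phosphate buffer with taurocholate and tween-20, pH 5.9. Reaction ran 20 min at room temperature; fluorescence (Ex 548/Em 600) gave AC50.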
Sequence of UniProt P04062 (P04062 whole entry, looked up): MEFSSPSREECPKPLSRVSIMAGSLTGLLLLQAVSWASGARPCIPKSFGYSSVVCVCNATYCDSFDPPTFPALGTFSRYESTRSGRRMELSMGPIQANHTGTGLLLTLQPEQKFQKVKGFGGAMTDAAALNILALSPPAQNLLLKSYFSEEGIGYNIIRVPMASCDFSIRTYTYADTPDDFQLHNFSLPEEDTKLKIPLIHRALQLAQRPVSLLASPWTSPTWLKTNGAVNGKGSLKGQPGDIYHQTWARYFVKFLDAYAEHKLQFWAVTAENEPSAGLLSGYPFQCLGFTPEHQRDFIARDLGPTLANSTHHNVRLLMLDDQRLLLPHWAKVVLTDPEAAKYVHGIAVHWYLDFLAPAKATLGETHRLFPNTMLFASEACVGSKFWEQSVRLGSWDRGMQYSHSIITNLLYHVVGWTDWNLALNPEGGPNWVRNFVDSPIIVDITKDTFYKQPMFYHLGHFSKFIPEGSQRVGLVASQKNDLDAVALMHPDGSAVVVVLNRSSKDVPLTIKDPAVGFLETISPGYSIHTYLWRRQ
`COc1ccc(C(C(=O)OCCN(C)C)c2ccccc2)cc1` (stereo unspecified): the Potency is inactive: > 76.9 µM.
On to `O=C(NCCCN1CCOCC1)c1c(F)cccc1F`, for which the Potency is inactive: > 76.9 µM.
In the case of `Cc1ccc(C)c(C(=O)C(C)OC(=O)c2cccn2C)c1` (stereo unspecified), the Potency is inactive: > 76.9 µM.
As for `COc1ccc(OC)c(NC(=O)CN2CCC(C(=O)c3ccc(C)cc3)CC2)c1`, the Potency is inactive: > 76.9 µM.
As for `O=C(O)c1ccc(N2CCCC2=O)cc1`, the figure is inactive: > 76.9 µM; as for `CCc1c(C)nc2ncnn2c1N1CCCC(C(=O)NCc2ccco2)C1` (stereo unspecified), inactive: > 76.9 µM; as for `CCn1c(SCC(=O)NCC2CCCO2)nc2cc(S(=O)(=O)N3CCCCC3)ccc21` (stereo unspecified), inactive: > 76.9 µM.
As for `O=C(Nc1cnc2ccccn2c1=O)c1ccc(F)cc1`, the Potency is inactive: > 76.9 µM.
The same measure for `O=S(=O)(c1ccc2c(c1)OCCO2)N1CCC(n2nnc3cc(C(F)(F)F)ccc32)CC1`: inactive: > 76.9 µM; for `COc1ccc(-c2cc(C(=O)Nc3cc(C)n(Cc4ccc(Cl)cc4)n3)no2)cc1OC`: inactive: > 76.9 µM; for `O=C(c1ccco1)N1CCN(S(=O)(=O)c2ccc(S(=O)(=O)NC3CCCC3)cc2)CC1`: inactive: > 76.9 µM.
On to `COC(=O)c1ccnc(/C=N/O)c1`, for which the Potency was inactive: > 76.9 µM.
As for `Cc1ccc2[nH]c(=O)c(CN(Cc3nnnn3Cc3ccccc3)C3CCCC3)cc2c1`, the Potency is inactive: > 76.9 µM.
In the case of `CN(Cc1ccccc1)C(=O)CNC(=O)Cn1cnc2ccccc2c1=O`, the Potency is inactive: > 76.9 µM.
As for `O=C(Nc1ccc(NC(=O)C2CC2)nc1)c1ccccn1`, the Potency is inactive: > 76.9 µM.
On to `CC1Cc2ccccc2N1C(=O)CN1C(=O)NC(C)(c2ccc3c(c2)OCCO3)C1=O` (stereo unspecified), for which the Potency is inactive: > 76.9 µM.
On to `CC1CCc2c(sc(NC(=O)c3ccc(Cn4cc(Br)cn4)o3)c2C(N)=O)C1` (stereo unspecified), for which the Potency is inactive: > 76.9 µM.
Consider `Cc1cc(S(=O)(=O)n2cnc3ccccc32)c(C)cc1Cl`, for which the Potency is inactive: > 76.9 µM.
Regarding `COc1ccc(CNc2nc3c(c(=O)n(Cc4ccc(F)cc4)c(=O)n3C)n2C)cc1`, the Potency is inactive: > 76.9 µM.
On to `CCS(=O)(=O)N1CCN(Cc2nc3ccccc3c(=O)[nH]2)CC1`, for which the Potency is inactive: > 76.9 µM.
Regarding `COc1ccccc1C(=O)Nc1ccc2c(c1)nc(CCNC(C)=O)n2C`, the Potency is inactive: > 76.9 µM.
In the case of `c1ccc(-n2nnnc2Sc2n[nH]c(-c3ccncc3)n2)cc1`, the Potency is inactive: > 76.9 µM.
For `COc1ccc(CC(=O)Nc2ccc3c(c2)OCO3)cc1S(=O)(=O)N1CCOCC1`, the Potency is inactive: > 76.9 µM.
`CCn1cc(C(=O)NCc2ccc3c(c2)OCO3)c(=O)c2cc(S(=O)(=O)N3CCOCC3)ccc21`: the Potency is inactive: > 76.9 µM.
As for `Cc1ccc(O)c(NC(=O)COc2cc(C)ccc2C)c1`, the Potency was inactive: > 76.9 µM.
Regarding `Cc1ccc(-c2nc3ccccc3n3nnnc23)cc1`, the Potency was inactive: > 76.9 µM.
As for `CN1C(=O)N(C)C2C1NC(=O)N2C` (stereo unspecified), the Potency is inactive: > 76.9 µM.
As for `N#CCCN(C(=O)COC(=O)c1ccc2c(c1)NC(=O)CS2)c1ccc2c(c1)OCCO2`, the Potency is inactive: > 76.9 µM.
Take `CN1CCN(S(=O)(=O)c2ccc(SCCOc3ccccc3)nc2)CC1`: the Potency entry was “inactive”.
As for `CN(C)c1ccc(C(C(=O)NC(C)(C)C)N(C(=O)c2csnn2)C2CC2)cc1` (stereo unspecified), the Potency is inactive: > 76.9 µM.
`CCCC(C(=O)NCC1CCCO1)N(Cc1ccco1)C(=O)CNS(=O)(=O)c1ccccc1` (stereo unspecified): the Potency is inactive: > 76.9 µM.
For the molecule `O=C(CN1CCC(O)(c2ccc3c(c2)OCO3)CC1)N1CCOCC1`, the Potency is inactive: > 76.9 µM.
As for `Cn1cc(C(=O)NC2CCCCC2)c(=O)c2cc(S(=O)(=O)N3CCCC3)ccc21`, the figure is inactive: > 76.9 µM.
For `NC(=O)C1(N2CCCCC2)CCN(C(=O)c2ccc(-n3cnnn3)cc2)CC1`, the Potency was inactive: > 76.9 µM.
As to `C=CCC(NCc1ccccc1)c1ccco1` (stereo unspecified), the Potency was inactive: > 76.9 µM.
`Cc1ccc(C)c(NC(=O)CN(C)S(=O)(=O)c2ccccc2)c1`: the Potency was inactive: > 76.9 µM.
Take `CCCC(=O)NCCCc1nc2ccccc2n1CCC`: the Potency is inactive: > 76.9 µM.
Turning to `O/N=C(\Cc1cscn1)c1ccc(O)cc1O`, the Potency is inactive: > 76.9 µM.
As for `CCS(=O)(=O)N1CCN(S(=O)(=O)c2ccc(F)cc2)CC1`, the figure is inactive: > 76.9 µM; as for `Clc1ccccc1Nc1c2c(nc3ncnn13)CCC2`, inactive: > 76.9 µM.
On to `CCNC(=O)NC(=O)COC(=O)CCCSc1nc2ccccc2[nH]1`, for which the Potency is inactive: > 76.9 µM.
On to `CC1CCCCN1C(=O)Cn1nnc(-c2cccnc2)n1` (stereo unspecified), for which the Potency is inactive: > 76.9 µM.
Take `CCCCN(C)CCNC(=O)c1ccc2c(c1)NC(=O)C(N1CCCCC1)S2` (stereo unspecified): the Potency was inactive: > 76.9 µM.
The same measure for `Nc1ccccc1NC(=O)c1ccccc1N`: inactive: > 76.9 µM; for `COc1ccc(C2C(C(=O)N3CCOCC3)c3ccccc3C(=O)N2c2ccc(OC)cc2)cc1` (stereo unspecified): inactive: > 76.9 µM.
For the molecule `CC(C(=O)NCc1ccc2c(c1)OCO2)N(c1ccccc1)S(C)(=O)=O` (stereo unspecified), the Potency is inactive: > 76.9 µM.
For `CCOC(=O)C1CCN(Cc2cn[nH]c2-c2ccc(C)cc2)CC1`, the Potency is inactive: > 76.9 µM.
As for `O=C(CN1C(=O)c2ccccc2S1(=O)=O)NCCC1=CCCCC1`, the figure is inactive: > 76.9 µM; as for `O=S(=O)(NCC1CCCO1)c1ccc2c(c1)OCCO2` (stereo unspecified), inactive: > 76.9 µM; as for `CCOC(=O)N1CCN(C(=O)Cn2ccc3ccccc3c2=O)CC1`, inactive: > 76.9 µM.
The same measure for `COc1ccc(OC)c(NC(=O)C2C3C=CC(C3)C2C(=O)NCc2ccccn2)c1` (stereo unspecified): inactive: > 76.9 µM.
For `COC(=O)CN(c1ccc2c(c1)OCCO2)S(=O)(=O)c1ccccc1`, the Potency is inactive: > 76.9 µM.
On to `CCN(CC(=O)Nc1ccc2c(c1)OCCO2)c1ccc(S(=O)(=O)N2CCOCC2)cn1`, for which the Potency is inactive: > 76.9 µM.
For `CC(NC(=O)C1CCC1)c1ccccc1` (stereo unspecified), the Potency is inactive: > 76.9 µM.
As to `CC1Cc2ccccc2N1C(=O)c1cccnc1` (stereo unspecified), the Potency is inactive: > 76.9 µM.
For the molecule `CC[N+](CC)(CCO)CCCN1C(=O)C2CC=C(Cl)CC2C1=O` (stereo unspecified), the Potency is inactive: > 76.9 µM.
In the case of `CCCCCNC(=O)CCCCn1c(=O)[nH]c2cc(OCC)c(OCC)cc2c1=O`, the Potency is inactive: > 76.9 µM.
As for `COc1ccc(CC(=O)NC2CCN(Cc3nnnn3C(C)(C)C)CC2)cc1OC`, the figure is inactive: > 76.9 µM.
Take `O=C(CN1C(=O)NC2NC(=O)NC21)NC1CCCCC1` (stereo unspecified): the Potency is inactive: > 76.9 µM.
Consider `Cc1occc1C(=O)Nc1ccc2c(c1)CCC2`, for which the Potency was inactive: > 76.9 µM.
For the molecule `COc1ccc(Cl)cc1NC(=O)COc1cccc(-n2cnnn2)c1`, the Potency is inactive: > 76.9 µM.
Regarding `COc1ccccc1NC(=O)N1CCCC1C(=O)NCc1ccccc1` (stereo unspecified), the Potency was inactive: > 76.9 µM.
Regarding `O=C(Nc1ccccc1N1CCN(C(=O)c2ccc(Cl)cc2)CC1)c1ccc2c(c1)OCO2`, the Potency was inactive: > 76.9 µM.
Take `COc1cc2c(cc1OC)C(c1ccc(N(C)C)cc1)CC(=O)N2` (stereo unspecified): the Potency is inactive: > 76.9 µM.
Consider `O=C(NCc1ccco1)C1CCCN(S(=O)(=O)c2cccc3nonc23)C1` (stereo unspecified), for which the Potency was inactive: > 76.9 µM.
As for `CCn1cc(Br)c(C(=O)NC(C)c2ccccc2)n1` (stereo unspecified), the figure is inactive: > 76.9 µM; as for `CC1(C)N=C(c2ccc(Cl)cc2Cl)C(=O)N1`, inactive: > 76.9 µM; as for `CCC(=O)NCCCOc1ccccc1`, inactive: > 76.9 µM.
Take `NC(=O)CSCc1c(Cl)cccc1Cl`: the Potency is inactive: > 76.9 µM.
Take `Brc1ccc(C2=Nn3c(nnc3-c3ccncc3)SC2)cc1`: the Potency was inactive: > 76.9 µM.
Turning to `CCOC(=O)c1c(NC(=O)CSc2n[nH]c(-c3ccco3)n2)sc(C)c1C`, the Potency is inactive: > 76.9 µM.
The same measure for `CS(=O)(=O)N(CC(=O)NC1CCCC1)c1ccc2c(c1)OCCO2`: inactive: > 76.9 µM; for `COc1cc2[nH]c(=O)n(CCC(=O)NC3CCCC3)c(=O)c2cc1OC`: inactive: > 76.9 µM; for `O=C1N(CC(=O)N2CCc3ccccc32)CCN1Cc1ccccc1Cl`: inactive: > 76.9 µM.
The same measure for `CCC1CCCCN1CCCn1c(=S)[nH]c2ccccc2c1=O` (stereo unspecified): inactive: > 76.9 µM; for `COc1ccc(-c2noc(CSc3nnc(-c4ccncc4)n3-c3ccc(F)cc3)n2)cc1OC`: inactive: > 76.9 µM; for `Cc1cc(C(F)(F)F)nc(SCC(=O)Nc2ccccc2)n1`: inactive: > 76.9 µM.
In the case of `CCn1c(C(C)NC(=O)Cc2ccccc2)nc2ccccc21` (stereo unspecified), the Potency was inactive: > 76.9 µM.
For `c1cncc(-c2nc(N3CCCCCC3)c3ccccc3n2)c1`, the Potency was inactive: > 76.9 µM.
As for `COc1ccc(S(=O)(=O)Nc2cc(C)c(O)cc2C(C)C)cc1`, the figure is inactive: > 76.9 µM; as for `CCSC1(SCC)N=C(N)C2(C#N)C(c3ccccc3)NC(C)=C(C)C12C#N` (stereo unspecified), inactive: > 76.9 µM; as for `CN(C)/C=C1/Nc2ccccc2C1=O`, inactive: > 76.9 µM.
The same measure for `Cc1cc(C)nc(SCc2nnc(SCC(=O)N3CCOCC3)o2)n1`: inactive: > 76.9 µM; for `Cc1c(C(=O)OCc2ccccc2)nnn1-c1nonc1N`: inactive: > 76.9 µM.
As for `COc1cc2[nH]c(=S)n(CCCN3CCOCC3)c(=O)c2cc1OC`, the figure is inactive: > 76.9 µM; as for `CCOC(=O)N1CCN(Cc2nc(N)nc(Nc3ccc(Oc4ccccc4)cc3)n2)CC1`, “inactive”.
Consider `COc1ccc2[nH]cc(C(=O)CN3CCCC(C)C3)c2c1` (stereo unspecified), for which the Potency was inactive: > 76.9 µM.
Consider `COC(=O)c1[nH]c2ccc(C)cc2c1NC(=O)C1=COCCO1`, for which the Potency was inactive: > 76.9 µM.
Take `O=C(NC1CCCC1)C1c2ccccc2C(=O)N1C1CCCCC1` (stereo unspecified): the Potency was inactive: > 76.9 µM.
For `COCCn1c(SCc2ccc(C(=O)OC)o2)nc2cc(Cl)ccc2c1=O`, the Potency was inactive: > 76.9 µM.
Turning to `CCN(C(=O)COC(=O)c1c(-c2ccccc2)noc1C)C1CCS(=O)(=O)C1` (stereo unspecified), the Potency was inactive: > 76.9 µM.

The values above are taken from PubChem BioAssay AID360 (National Center for Advancing Translational Sciences (NCATS), 2006).
